# Measured values published in the supplement of paper PMC8728848.
# This is one part of the list.
# B1: PX15618B-bfa-464-25-464 (Bacteroides fragilis) (protein)
# chain: DQEPPLYVNENDIFTSPTRIEATLNGLYAAIKNTGTKSLMGGKSYLVFDNRGDDVINISNNLVTLFNTYNMNVGITDAENADTWTYAYLAINKVNTFLQSLEGAREVAGENYDRYVQEAKFVRALAYYYLNNLYPTPYSVNPDAKSVPLRLTAEAGTENNNMPRSTVKQIYEHILSDLENISALDTEVNTYTGVTHATQAAANMLKMRVYMAMNEWDKAITAGELVTGYSLPEDVTLIYKAPYFSQESIFSLPMADTNIPNTQQSLAEYYYDGKIMLIDTKSGIMSKPDYSLATDKRIIAFKGEKDLLMKFTDAKTKLQWVPIFRYAETLLDLAECYANKAGGEATAKSLLKQVRGRSVDAATDPLNIDNLSGDALKEAIYNEKRLEFIGEGIRGIDIMRRGEHFIKVGENETINVGPSDEKYTWPIPQVELLLNKDINK
# Columns and labels:
# Test in all cases: glycan array binding signal (z-score within array); higher = stronger binding
# Conditions in all cases: glycan notation: IUPAC condensed, linker removed
# [1] = molecular target: GlcNAc(b1-3)Gal(b1-4)Glc
# Summary of the method: (§1)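 The Consortium for Functional Glycomics database supplied 3228 glycan arrays, of which those lacking an available protein sequence were dropped. The binding signal, a within-array Z-score, was averaged across arrays of the same protein sequence and across linkers. Negative scores can be read as non-binding.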
# [2] = molecular target: GlcNAc(b1-3)Gal(b1-4)GlcNAc
# Summary of the method: as §1
# [3] = molecular target: GlcNAc(b1-3)Gal(b1-4)GlcNAc(b1-2)Man(a1-3)[GlcNAc(b1-3)Gal(b1-4)GlcNAc(b1-2)Man(a1-6)]Man(b1-4)GlcNAc(b1-4)GlcNAc
# Summary of the method: as §1
# [4] = molecular target: GlcNAc(b1-3)Gal(b1-4)GlcNAc(b1-2)Man(a1-3)[GlcNAc(b1-3)Gal(b1-4)GlcNAc(b1-2)Man(a1-6)]Man(b1-4)GlcNAc(b1-4)[Fuc(a1-6)]GlcNAc
# Summary of the method: as §1
# [5] = molecular target: GlcNAc(b1-3)Gal(b1-4)GlcNAc(b1-2)[GlcNAc(b1-3)Gal(b1-4)GlcNAc(b1-6)]Man(a1-6)[GlcNAc(b1-3)Gal(b1-4)GlcNAc(b1-2)Man(a1-3)]Man(b1-4)GlcNAc(b1-4)GlcNAc
# Summary of the method: as §1
# [6] = molecular target: GlcNAc(b1-3)Gal(b1-4)GlcNAc(b1-3)Gal(b1-4)GlcNAc
# Summary of the method: as §1
# [7] = molecular target: GlcNAc(b1-3)Gal(b1-4)GlcNAc(b1-3)Gal(b1-4)GlcNAc(b1-2)Man(a1-3)[GlcNAc(b1-3)Gal(b1-4)GlcNAc(b1-3)Gal(b1-4)GlcNAc(b1-2)Man(a1-6)]Man(b1-4)GlcNAc(b1-4)GlcNAc
# Summary of the method: as §1
# [8] = molecular target: GlcNAc(b1-3)Gal(b1-4)GlcNAc(b1-3)Gal(b1-4)GlcNAc(b1-2)Man(a1-3)[GlcNAc(b1-3)Gal(b1-4)GlcNAc(b1-3)Gal(b1-4)GlcNAc(b1-2)Man(a1-6)]Man(b1-4)GlcNAc(b1-4)[Fuc(a1-6)]GlcNAc
# Summary of the method: as §1
# [9] = molecular target: GlcNAc(b1-3)Gal(b1-4)GlcNAc(b1-3)Gal(b1-4)GlcNAc(b1-2)[GlcNAc(b1-3)Gal(b1-4)GlcNAc(b1-3)Gal(b1-4)GlcNAc(b1-6)]Man(a1-6)[GlcNAc(b1-3)Gal(b1-4)GlcNAc(b1-3)Gal(b1-4)GlcNAc(b1-2)Man(a1-3)]Man(b1-4)GlcNAc(b1-4)[Fuc(a1-6)]GlcNAc
# Summary of the method: as §1
# [10] = molecular target: GlcNAc(b1-3)Gal(b1-4)GlcNAc(b1-3)Gal(b1-4)GlcNAc(b1-3)Gal(b1-4)GlcNAc(b1-2)Man(a1-3)[GlcNAc(b1-3)Gal(b1-4)GlcNAc(b1-3)Gal(b1-4)GlcNAc(b1-3)Gal(b1-4)GlcNAc(b1-2)Man(a1-6)]Man(b1-4)GlcNAc(b1-4)GlcNAc
# Summary of the method: as §1
# [11] = molecular target: GlcNAc(b1-3)Gal(b1-4)GlcNAc(b1-3)Gal(b1-4)GlcNAc(b1-3)Gal(b1-4)GlcNAc(b1-2)Man(a1-3)[GlcNAc(b1-3)Gal(b1-4)GlcNAc(b1-3)Gal(b1-4)GlcNAc(b1-3)Gal(b1-4)GlcNAc(b1-2)Man(a1-6)]Man(b1-4)GlcNAc(b1-4)[Fuc(a1-6)]GlcNAc
# Summary of the method: as §1
# [12] = molecular target: GlcNAc(b1-3)Gal(b1-4)GlcNAc(b1-3)Gal(b1-4)GlcNAc(b1-3)Gal(b1-4)GlcNAc(b1-2)[GlcNAc(b1-3)Gal(b1-4)GlcNAc(b1-3)Gal(b1-4)GlcNAc(b1-3)Gal(b1-4)GlcNAc(b1-6)]Man(a1-6)[GlcNAc(b1-3)Gal(b1-4)GlcNAc(b1-3)Gal(b1-4)GlcNAc(b1-3)Gal(b1-4)GlcNAc(b1-2)Man(a1-3)]Man(b1-4)GlcNAc(b1-4)[Fuc(a1-6)]GlcNAc
# Summary of the method: as §1
# [13] = molecular target: GlcNAc(b1-3)Gal(b1-4)GlcNAc(b1-3)Gal(b1-4)GlcNAc(b1-3)Gal(b1-4)GlcNAc(b1-3)Gal(b1-4)GlcNAc(b1-2)Man(a1-3)[GlcNAc(b1-3)Gal(b1-4)GlcNAc(b1-3)Gal(b1-4)GlcNAc(b1-3)Gal(b1-4)GlcNAc(b1-3)Gal(b1-4)GlcNAc(b1-2)Man(a1-6)]Man(b1-4)GlcNAc(b1-4)GlcNAc
# Summary of the method: as §1
# [14] = molecular target: GlcNAc(b1-3)Gal(b1-4)GlcNAc(b1-3)Gal(b1-4)GlcNAc(b1-3)Gal(b1-4)GlcNAc(b1-3)Gal(b1-4)GlcNAc(b1-2)Man(a1-3)[GlcNAc(b1-3)Gal(b1-4)GlcNAc(b1-3)Gal(b1-4)GlcNAc(b1-3)Gal(b1-4)GlcNAc(b1-3)Gal(b1-4)GlcNAc(b1-2)Man(a1-6)]Man(b1-4)GlcNAc(b1-4)[Fuc(a1-6)]GlcNAc
# Summary of the method: as §1
# [15] = molecular target: GlcNAc(b1-3)Gal(b1-4)GlcNAc(b1-3)Gal(b1-4)GlcNAc(b1-3)Gal(b1-4)GlcNAc(b1-3)Gal(b1-4)GlcNAc(b1-2)[GlcNAc(b1-3)Gal(b1-4)GlcNAc(b1-3)Gal(b1-4)GlcNAc(b1-3)Gal(b1-4)GlcNAc(b1-3)Gal(b1-4)GlcNAc(b1-6)]Man(a1-6)[GlcNAc(b1-3)Gal(b1-4)GlcNAc(b1-3)Gal(b1-4)GlcNAc(b1-3)Gal(b1-4)GlcNAc(b1-3)Gal(b1-4)GlcNAc(b1-2)Man(a1-3)]Man(b1-4)GlcNAc(b1-4)[Fuc(a1-6)]GlcNAc
# Summary of the method: as §1
# [16] = molecular target: GlcNAc(b1-3)Gal(b1-4)GlcNAc(b1-3)Gal(b1-4)GlcNAc(b1-3)GalNAc
# Summary of the method: as §1
# [17] = molecular target: GlcNAc(b1-3)Gal(b1-4)GlcNAc(b1-3)GalNAc
# Summary of the method: as §1
# [18] = molecular target: GlcNAc(b1-3)Gal(b1-4)GlcNAc(b1-3)[GlcNAc(b1-3)Gal(b1-4)GlcNAc(b1-3)]GalNAc
# Summary of the method: as §1
# [19] = molecular target: GlcNAc(b1-3)Gal(b1-4)GlcNAc(b1-6)[Gal(b1-3)]GalNAc
# Summary of the method: as §1
# [20] = molecular target: GlcNAc(b1-3)Gal(b1-4)GlcNAc(b1-6)[GlcNAc(b1-3)Gal(b1-3)]GalNAc
# Summary of the method: as §1
# [21] = molecular target: GlcNAc(b1-3)Gal(b1-4)GlcNAc(b1-6)[GlcNAc(b1-3)]Gal(b1-4)GlcNAc
# Summary of the method: as §1
# [22] = molecular target: GlcNAc(b1-3)GalNAc
# Summary of the method: as §1
# [23] = molecular target: GlcNAc(b1-3)Man
# Summary of the method: as §1
# [24] = molecular target: GlcNAc(b1-3)[GlcNAc(b1-4)][GlcNAc(b1-6)]GlcNAc
# Summary of the method: as §1
# [25] = molecular target: GlcNAc(b1-3)[GlcNAc(b1-6)]Gal(b1-4)GlcNAc
# Summary of the method: as §1
# [26] = molecular target: GlcNAc(b1-3)[GlcNAc(b1-6)]GalNAc
# Summary of the method: as §1
# [27] = molecular target: GlcNAc(b1-4)Gal(b1-4)GlcNAc
# Summary of the method: as §1
# [28] = molecular target: GlcNAc(b1-4)GlcNAc
# Summary of the method: as §1
# [29] = molecular target: GlcNAc(b1-4)GlcNAc(b1-4)GlcNAc
# Summary of the method: as §1
# [30] = molecular target: GlcNAc(b1-4)GlcNAc(b1-4)GlcNAc(b1-4)GlcNAc(b1-4)GlcNAc
# Summary of the method: as §1
# [31] = molecular target: GlcNAc(b1-4)GlcNAc(b1-4)GlcNAc(b1-4)GlcNAc(b1-4)GlcNAc(b1-4)GlcNAc
# Summary of the method: as §1
# [32] = molecular target: GlcNAc(b1-4)[GlcNAc(b1-6)]GalNAc
# Summary of the method: as §1
# [33] = molecular target: GlcNAc(b1-6)Gal(b1-4)GlcNAc
# Summary of the method: as §1
# [34] = molecular target: GlcNAc(b1-6)GalNAc
# Summary of the method: as §1
# [35] = molecular target: GlcNAc6S(b1-3)Gal(b1-4)GlcNAc
# Summary of the method: as §1
# [36] = molecular target: Kdn(a2-3)Gal(b1-3)GalNAc
# Summary of the method: as §1
# [37] = molecular target: Kdn(a2-3)Gal(b1-3)GlcNAc
# Summary of the method: as §1
# [38] = molecular target: Kdn(a2-3)Gal(b1-4)Glc
# Summary of the method: as §1
# [39] = molecular target: Kdn(a2-3)Gal(b1-4)GlcNAc
# Summary of the method: as §1
# [40] = molecular target: Kdn(a2-3)Gal(b1-4)[Fuc(a1-3)]GlcNAc
# Summary of the method: as §1
# [41] = molecular target: Kdn(a2-6)Gal(b1-4)GlcNAc
# Summary of the method: as §1
# [42] = molecular target: Man(a1-2)Man(a1-2)Man(a1-3)Man
# Summary of the method: as §1
# [43] = molecular target: Man(a1-2)Man(a1-2)Man(a1-6)[Man(a1-3)]Man
# Summary of the method: as §1
# [44] = molecular target: Man(a1-2)Man(a1-3)Man
# Summary of the method: as §1
# [45] = molecular target: Man(a1-2)Man(a1-3)[Man(a1-2)Man(a1-6)]Man
# Summary of the method: as §1
binder,measurement,setting,value
B1,glycan array binding signal (z-score),[1],-0.08
same,glycan array binding signal (z-score),[2],-0.38
same,glycan array binding signal (z-score),[3],-0.165
same,glycan array binding signal (z-score),[4],-0.453
same,glycan array binding signal (z-score),[5],0.459
same,glycan array binding signal (z-score),[6],0.072
same,glycan array binding signal (z-score),[7],0.522
same,glycan array binding signal (z-score),[8],0.457
same,glycan array binding signal (z-score),[9],-0.207
same,glycan array binding signal (z-score),[10],0.102
same,glycan array binding signal (z-score),[11],0.647
same,glycan array binding signal (z-score),[12],0.888
same,glycan array binding signal (z-score),[13],0.012
same,glycan array binding signal (z-score),[14],0.748
same,glycan array binding signal (z-score),[15],-0.353
same,glycan array binding signal (z-score),[16],-0.357
same,glycan array binding signal (z-score),[17],0.586
same,glycan array binding signal (z-score),[18],0.807
same,glycan array binding signal (z-score),[19],-0.226
same,glycan array binding signal (z-score),[20],-0.241
same,glycan array binding signal (z-score),[21],-0.679
same,glycan array binding signal (z-score),[22],-0.195
same,glycan array binding signal (z-score),[23],-0.321
same,glycan array binding signal (z-score),[24],-0.765
same,glycan array binding signal (z-score),[25],-0.26
same,glycan array binding signal (z-score),[26],-0.088
same,glycan array binding signal (z-score),[27],1.25
same,glycan array binding signal (z-score),[28],-0.122
same,glycan array binding signal (z-score),[29],-0.026
same,glycan array binding signal (z-score),[30],-0.106
same,glycan array binding signal (z-score),[31],-0.076
same,glycan array binding signal (z-score),[32],0.829
same,glycan array binding signal (z-score),[33],-0.393
same,glycan array binding signal (z-score),[34],0.228
same,glycan array binding signal (z-score),[35],0.529
same,glycan array binding signal (z-score),[36],-0.399
same,glycan array binding signal (z-score),[37],-0.354
same,glycan array binding signal (z-score),[38],-0.123
same,glycan array binding signal (z-score),[39],-0.28
same,glycan array binding signal (z-score),[40],0.413
same,glycan array binding signal (z-score),[41],0.29
same,glycan array binding signal (z-score),[42],-0.568
same,glycan array binding signal (z-score),[43],0.334
same,glycan array binding signal (z-score),[44],-0.045
same,glycan array binding signal (z-score),[45],-0.279
